From the supplement of paper PMC5499739
The full ranking holds about 16,000 sequences; the median of “Z-score” is about -0.37, and the highest 2% start at about 3.2. Some of the results follow.

system: RBM10 RRM1-ZnF (GST-tagged construct); test: RNAcompete 7-mer binding Z-score; higher = stronger binding preference
Description: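 RNAcompete: 20 pmol GST-tagged RBM10 RNA-binding constructs were incubated with a designed RNA pool of about 241,000 sequences up to 41 nt (1.5 nmol) on glutathione beads for 30 min at 4 °C and washed. Bound RNAs were identified by microarray hybridisation. Each RNA 7-mer is scored by a one-sided Z-score of its enrichment, computed over probes that contain the 7-mer within longer pool sequences.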

Sequence | RNAcompete 7-mer binding Z-score
UACGUAU | -0.422
UUUCAUA | -0.772
UAUGGGU | 2.81
CCGCCCU | -0.49
AUCAGAU | -0.184
GGCCUUA | -0.474
AUUAAAU | -0.578
UGUCAAU | -0.513
GAACUAG | -0.123
CAAAAGA | -0.243
UACUAAC | -0.565
UCAAGAC | -0.396
CGUACAG | -0.214
GCCGUCA | -0.587
AAUAGUA | 0.0885
CAGGUGG | 2.25
CUCGGUG | 0.115
UCUAGUG | -0.34
UCAACGU | -0.626
CAGCACU | -0.412
GACCGGC | -0.532
CUCCUUA | -0.863
UAUCCUC | -0.675
ACGGAUU | 0.654

Sequence | RNAcompete 7-mer binding Z-score
UAGCCUC | -0.733
UCAAUAC | -0.639
CAUAUUG | -0.477
ACACGCG | -0.321
UACGUCC | -0.61
AAAUAGU | -0.23
UCACACG | -0.314
GUGCCCA | -0.574
AUAUCUA | -0.467
AGGACAA | 0.907
UCCUUUU | -0.85
CCUGUAA | -0.899
CUUUAAA | -0.782
GGUGUCG | 1.54
AAUCGUC | -0.733
GGGUUGC | 2.56
AUGUCCA | -0.756
ACGUUGU | -0.253
CUAUUUC | -0.977
GGGCUUU | 0.566
UAUAGGC | 0.196
CAAGAGA | 0.0755
CCAGACU | -0.746
GUACGUU | -0.24

Sequence | RNAcompete 7-mer binding Z-score
UGAGUUU | -0.132
UGCGGUG | 1.58
ACUUCAA | -0.701
GACGGGU | 2.36
UAAGUAA | -0.165
UUACGAG | -0.171
ACACGAU | -0.503
UGAAAUU | -0.617
AUGACCC | -0.513
UUCCCAA | -0.789
UGGAGUC | 0.972
GCGGUUA | 1.32
GCUACCC | -0.633
GGAAUGG | 4.85
CAGGCCG | -0.149
UGGUGAA | 1.71
AUCCGCC | -0.763
UGUACGU | -0.175
GAAGCGC | 0.0885
GAAGGUA | 3.84
GUAAGUU | 0.0918
UAAGAAC | -0.305
ACGAAAA | -0.233
GGAAAUC | 0.745

Sequence | RNAcompete 7-mer binding Z-score
GUUUAUG | 0.28
UUUGUUA | -0.753
AGGGGUC | 1.98
GUCAUAU | -0.402
UGGACCC | 0.105
CUCCUAA | -0.74
ACUCUAG | -0.555
AAUUGAA | -0.178
GCACUUA | -0.555
UGUCCUA | -0.574
UGCCUUU | -0.886
UGGGAAC | 2.22
UCUGUUA | -0.763
CGCGACU | -0.662
UAAUUUU | -0.798
GAAUGUG | 1.27
GUUCGUG | 0.0755
CGGUGCG | 0.8
GGAUUAG | 2.37
GCUGCCA | -0.578
CAAUCGU | -0.714
GUAAAGU | 0.54
ACAGAAA | -0.256
UGCUGCG | -0.11

Sequence | RNAcompete 7-mer binding Z-score
UUGCCCG | -0.659
CCACCGU | -0.392
AAGGUCA | 0.904
CCAGACG | -0.402
CGUUAAC | -0.649
GGGGCAG | 3.4
CCGGUCU | -0.649
AGCGGAG | 2.14
GCGUGUA | 0.212
CAGACCU | -0.678
GCCGGCU | -0.649
UGAUUUU | -0.818
CUUAUUC | -0.863
GUCCUCA | -0.792
AGGACCC | -0.516
CGAUGAA | 0.0853
CAAAUCG | -0.513
UACACGU | -0.526
UUCUAAG | -0.636
AUGAUCC | -0.675
AGUCACC | -0.636
